# In the RNAGym collection of RNA variant scans (doi:10.1093/nar/gkz1192):
# Read counts are not given, so values of variants with three or more changes are uncertain.
# B1: CPEB3 Ribozyme (parent)
# chain: UAACAGGGGGCCACAGCAGAAGCGUUCACGUCGCAGCCCCUGUCAGAUUCUGGUGAAUCUGCGAAUUCUGCUGUAUAUCUC
# Variants of: B1
# Experiment: self-cleavage, relative activity (ratio to wild type); higher = more cleavage; in vitro, sequencing
# Outline: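 For each CPEB3 ribozyme variant, relative activity is its cleaved/total read fraction divided by the unmutated ribozyme's. Barcoded error-prone PCR libraries were transcribed by T7 RNA polymerase (5 hours, 37°C) and held in DNase I for 15 min before an EDTA stop, with cleavage occurring throughout. Template-switching reverse transcription and Illumina sequencing were used to read the RNAs. A 5-read minimum applied, and results are the mean of three batches.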
row,Variant,self-cleavage
1,G22A G42A A57G A65G A75G A77G,0.04
2,A21G U48C U49A,0.18
3,C23U U25C C37A C62A A75G,0.04
4,A21G U26A A64G,0.24
5,A21U A56G U78C,0.25
6,A21U A47U A65U,0.08
7,A21U A35U A56G A64U U72G,0.03
8,A21G U51A A64C,0.14
9,A21G U49A A56G U67C,0.09
10,A21U U25C G30A U31C U72C A77U U80C,0.04
11,A21G U51C U66C,0.88
12,A21G U54G U60A A64G A75U,0.13
13,C23U U31C A35G,0.26
14,A21U U41G G70A,0.18
15,A21G G30C A57G U76A,0.17
16,C23A A64G U67A U76C,0.16
17,A21G U25A U26A U51A A65U A75G,0.05
18,A21U C29U G42A U78C,0.12
19,A21G U41A U66C U69C U72C,0.16
20,A21G U26C U72A,0.22
21,A21G U26C U72C,0.37

row,Variant,self-cleavage
1,A21U U48C U51C U74A,0.06
2,C23U A35G U69C,0.17
3,C23U A35G U43C A56G A57U G61A U72C,0.04
4,C23G U25C A35G U41C U49G U69G,0
5,C23A G52U U72A,0.08
6,A21G G63A U67A,0.15
7,A21G G22C U43G U60C,0.07
8,A21U A28G A45U,0.1
9,A21U C62U A65G U66C,0.06
10,C23A A35G U67C,0.08
11,A21G U43C U48C U69C U72C,0.09
12,A21G U66C U80C,1.06
13,A21G U25C U67C U69C U74C,0
14,C23U U72C A75U,0.48
15,A21G U49C U76G,0.18
16,A21G U58C U78A,0.34
17,C23A A35G A64U U80G,0.07
18,G22U A56G U60C,0.15
19,A21G U41C U60C G61A,0.24
20,A21G U49A A57G U72A U78C,0.08
21,A21G G30A U66C U67C U72C,0.07

row,Variant,self-cleavage
1,C23U A47G U51C A57G U72C,0.14
2,A21G G33A A47G U49A,0.07
3,A21G U25C U31G,0.49
4,C23G U58C C59A U66C G70A U78G,0.03
5,C23G U25C C39U A45C G61A,0.08
6,C23A C27A C39A,0.16
7,C23A C34U U60C,0.08
8,G22A U48A G52C A65G U76C,0.05
9,A21U A57G U74A U80C,0.76
10,C23U A28G G42A U48C,0.14
11,A21U A47G A65G,0.07
12,G22A U69A C79U,0.11
13,A21G G36U U80C,0.24
14,A21G U51C U58A A64G C68A,0.1
15,G22C U26A U43C,0.08
16,A21G G53A U76C,0.87
17,A21U A47G A56G U67C U69C,0.03
18,A21G U25C G30A U66C U72C,0.36
19,G22A U25C U49C G63A U78C,0.09
20,C23U G55A G61A U72C A75U,0.07
21,A21G C40U A47G U48C A57G,0.19

row,Variant,self-cleavage
1,A21G U31G U41C U60C,0.08
2,A21G U26A A28G U60C,0.16
3,A21U U41A A64G,0.24
4,C23U A28U A57G,0.1
5,C23A C27G U74C,0.38
6,A21G C40A A64U A75U U80C,0.07
7,A21G U43A U54A U58C G61A U67A,0.21
8,A21G U26C U54C A75U,0.13
9,G22U G61A C71U U80G,0.08
10,C23A A28G U54G A64G U80C,0.15
11,C23U U25C C40U U72A,0.11
12,A21U A65G U76A,0.19
13,A21U U25C A45G U51A A56U U66C U78C,0.03
14,G22A U51G U60C,0.12
15,G22A C32U U51C A56U U69A U72A,0.06
16,A21U C23U G33C C68U,0.12
17,C23U U54C A65C,0.43
18,C23U U43A U58C U72A,0.08
19,A21U U26A U41C A65G U80A,0.04
20,C23G U26C U54A U74C,0.1
